Results reported in the supplement of paper PMC4604168 (melanoma cell lines).
This is one part of the list. Many values rest on one well or one pass, so single values are uncertain.

system: COLO792; assay: cell count relative to DMSO control; melanoma cells; higher = more viable cells; conditions: library dose: low library concentration; 72 h
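Also: cell number obtained by counting DAPI-stained nuclei in high-throughput microscope images with image analysis software, screen run in 1,536-well plates.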

Compound	cell count
COc1ccc(C2=N[C@@H](c3ccc(Cl)cc3)[C@@H](c3ccc(Cl)cc3)N2C(=O)N2CCNC(=O)C2)c(OC(C)C)c1 [Nutlin-3] + C=C(c1ccc(C(=O)O)cc1)c1cc2c(cc1C)C(C)(C)CCC2(C)C [Bexarotene] (first compound 0.1 µM, partner dose 2 µM)	99.6%
Cc1cc(Nc2cc(N3CCN(C)CC3)nc(/C=C/c3ccccc3)n2)n[nH]1 + Cc1nc(Nc2ncc(C(=O)Nc3c(C)cccc3Cl)s2)cc(N2CCN(CCO)CC2)n1 [dasatanib] (first compound 0.04 µM, partner dose 0.004 µM)	73.5%
Cc1cn(-c2cc(NC(=O)c3ccc(C)c(Nc4nccc(-c5cccnc5)n4)c3)cc(C(F)(F)F)c2)cn1 [nilotinib] + CC(=O)O[C@@]12CO[C@@H]1C[C@H](O)[C@@]1(C)C(=O)[C@H](O)C3=C(C)[C@@H](OC(=O)[C@H](O)[C@@H](NC(=O)OC(C)(C)C)c4ccccc4)C[C@@](O)([C@@H](OC(=O)c4ccccc4)[C@H]21)C3(C)C [Docetaxel] (first compound 0.2 µM, partner dose 0.0001 µM)	42.3%
Cn1c(=O)n(-c2ccc(C(C)(C)C#N)cc2)c2c3cc(-c4cnc5ccccc5c4)ccc3ncc21 + CO[C@H]1C[C@@H]2CC[C@@H](C)[C@@](O)(O2)C(=O)C(=O)N2CCCC[C@H]2C(=O)O[C@H]([C@H](C)C[C@@H]2CC[C@@H](OCCO)[C@H](OC)C2)CC(=O)[C@H](C)/C=C(\C)[C@@H](O)[C@@H](OC)C(=O)[C@H](C)C[C@H](C)/C=C/C=C/C=C/1C [everolimus] (first compound 0.004 µM, partner dose 0.02 µM)	40.5%
COc1ccc(C2=N[C@@H](c3ccc(Cl)cc3)[C@@H](c3ccc(Cl)cc3)N2C(=O)N2CCNC(=O)C2)c(OC(C)C)c1 [Nutlin-3] + C[C@]1(c2nc3c(C(N)=O)cccc3[nH]2)CCCN1 [Veliparib] (first compound 0.1 µM, partner dose 1.4 µM)	86.9%
COc1ccc(C2=N[C@@H](c3ccc(Cl)cc3)[C@@H](c3ccc(Cl)cc3)N2C(=O)N2CCNC(=O)C2)c(OC(C)C)c1 [Nutlin-3] + Nc1cccc2c1CN(C1CCC(=O)NC1=O)C2=O [lenalidomide] (first compound 0.1 µM, partner dose 1 µM)	95.2%
CC(C)C[C@H](NC(=O)[C@H](Cc1ccccc1)NC(=O)c1cnccn1)B(O)O [Bortezomib] + O=C(O)[C@@H]1[O][Sb](=[O])([O][Sb]2(=[O])[O][C@H]([C@H](O)CO)[C@H](O)[C@H](C(=O)O)[O]2)[O][C@H]([C@H](O)CO)[C@@H]1O [stibogluconate] (first compound 0.001 µM, partner dose 2 µM)	88.5%
COc1ccc(C2=N[C@@H](c3ccc(Cl)cc3)[C@@H](c3ccc(Cl)cc3)N2C(=O)N2CCNC(=O)C2)c(OC(C)C)c1 [Nutlin-3] + Nc1ccn([C@@H]2O[C@H](CO)[C@@H](O)C2(F)F)c(=O)n1 [gemcitabine] (first compound 0.1 µM, partner dose 0.0004 µM)	86.4%
Cc1cc(Nc2cc(N3CCN(C)CC3)nc(/C=C/c3ccccc3)n2)n[nH]1 + CCCS(=O)(=O)Nc1ccc(F)c(C(=O)c2c[nH]c3ncc(Cl)cc23)c1F [PLX4720] (first compound 0.04 µM, partner dose 0.08 µM)	97.4%
Cn1c(=O)n(-c2ccc(C(C)(C)C#N)cc2)c2c3cc(-c4cnc5ccccc5c4)ccc3ncc21 + COc1ccc(Cl)c(Nc2nc3ccccc3nc2NS(=O)(=O)c2cccc(NC(=O)C(C)(C)N)c2)c1 [XL147] (first compound 0.004 µM, partner dose 0.8 µM)	94.8%
Cc1cn(-c2cc(NC(=O)c3ccc(C)c(Nc4nccc(-c5cccnc5)n4)c3)cc(C(F)(F)F)c2)cn1 [nilotinib] + NC(=O)c1ccc(N(C(N)=O)c2c(F)cccc2F)nc1-c1ccc(F)cc1F [VX702] (first compound 0.2 µM, partner dose 0.4 µM)	104%
Cc1cn(-c2cc(NC(=O)c3ccc(C)c(Nc4nccc(-c5cccnc5)n4)c3)cc(C(F)(F)F)c2)cn1 [nilotinib] + O=C(O)c1ccc2c(c1)nc(Nc1cccc(Cl)c1)c1ccncc12 [CX4945] (first compound 0.2 µM, partner dose 0.4 µM)	97.9%
Cc1cn(-c2cc(NC(=O)c3ccc(C)c(Nc4nccc(-c5cccnc5)n4)c3)cc(C(F)(F)F)c2)cn1 [nilotinib] + C[C@]1(O)C[C@@H](c2nc(-c3ccc4ccc(-c5ccccc5)nc4c3)c3c(N)nccn32)C1 [OSI906] (first compound 0.2 µM, partner dose 0.4 µM)	100%
CC(C)C[C@H](NC(=O)[C@H](Cc1ccccc1)NC(=O)c1cnccn1)B(O)O [Bortezomib] + Nc1nc(F)nc2c1ncn2[C@@H]1O[C@H](CO)[C@@H](O)[C@@H]1O [fludarabine] (first compound 0.001 µM, partner dose 0.2 µM)	106%
COc1ccc(C2=N[C@@H](c3ccc(Cl)cc3)[C@@H](c3ccc(Cl)cc3)N2C(=O)N2CCNC(=O)C2)c(OC(C)C)c1 [Nutlin-3] + CNC(=O)c1cc(Oc2ccc(NC(=O)Nc3ccc(Cl)c(C(F)(F)F)c3)cc2)ccn1 [sorafenib] (first compound 0.1 µM, partner dose 0.4 µM)	92%
COc1ccc(C2=N[C@@H](c3ccc(Cl)cc3)[C@@H](c3ccc(Cl)cc3)N2C(=O)N2CCNC(=O)C2)c(OC(C)C)c1 [Nutlin-3] + COCC[n+]1c2c(n(Cc3cnccn3)c1C)C(=O)c1ccccc1C2=O [YM155] (first compound 0.1 µM, partner dose 0.0004 µM)	109%
COc1ccc(C2=N[C@@H](c3ccc(Cl)cc3)[C@@H](c3ccc(Cl)cc3)N2C(=O)N2CCNC(=O)C2)c(OC(C)C)c1 [Nutlin-3] + Nc1nc(F)nc2c1ncn2[C@@H]1O[C@H](CO)[C@@H](O)[C@@H]1O [fludarabine] (first compound 0.1 µM, partner dose 0.2 µM)	104%
COc1ccc(C2=N[C@@H](c3ccc(Cl)cc3)[C@@H](c3ccc(Cl)cc3)N2C(=O)N2CCNC(=O)C2)c(OC(C)C)c1 [Nutlin-3] + CC(C)C[C@H](NC(=O)[C@H](Cc1ccccc1)NC(=O)c1cnccn1)B(O)O [Bortezomib] (first compound 0.1 µM, partner dose 0.001 µM)	121%
CC(C)C[C@H](NC(=O)[C@H](Cc1ccccc1)NC(=O)c1cnccn1)B(O)O [Bortezomib] + CNC(=O)c1cc(Oc2ccc(NC(=O)Nc3ccc(Cl)c(C(F)(F)F)c3)cc2)ccn1 [sorafenib] (first compound 0.001 µM, partner dose 0.4 µM)	113%
Cc1cc(Nc2cc(N3CCN(C)CC3)nc(/C=C/c3ccccc3)n2)n[nH]1 + Nc1ccn([C@@H]2O[C@H](CO)[C@@H](O)C2(F)F)c(=O)n1 [gemcitabine] (first compound 0.04 µM, partner dose 0.0004 µM)	93.3%
CC(C)C[C@H](NC(=O)[C@H](Cc1ccccc1)NC(=O)c1cnccn1)B(O)O [Bortezomib] + Cc1nc(Nc2ncc(C(=O)Nc3c(C)cccc3Cl)s2)cc(N2CCN(CCO)CC2)n1 [dasatanib] (first compound 0.001 µM, partner dose 0.004 µM)	63%
COc1ccc(C2=N[C@@H](c3ccc(Cl)cc3)[C@@H](c3ccc(Cl)cc3)N2C(=O)N2CCNC(=O)C2)c(OC(C)C)c1 [Nutlin-3] + C[C@@H](Oc1cc(-c2cnn(C3CCNCC3)c2)cnc1N)c1c(Cl)ccc(F)c1Cl [Crizotinib] (first compound 0.1 µM, partner dose 0.2 µM)	92.9%
COc1ccc(C2=N[C@@H](c3ccc(Cl)cc3)[C@@H](c3ccc(Cl)cc3)N2C(=O)N2CCNC(=O)C2)c(OC(C)C)c1 [Nutlin-3] + OCc1c[nH]c2ccccc12 [Indole-3-carbinol] (first compound 0.1 µM, partner dose 0.8 µM)	99.1%
COc1ccc(C2=N[C@@H](c3ccc(Cl)cc3)[C@@H](c3ccc(Cl)cc3)N2C(=O)N2CCNC(=O)C2)c(OC(C)C)c1 [Nutlin-3] + CS(=O)(=O)CCNCc1ccc(-c2ccc3ncnc(Nc4ccc(OCc5cccc(F)c5)c(Cl)c4)c3c2)o1 [lapatinib] (first compound 0.1 µM, partner dose 0.8 µM)	85.8%
Cc1cn(-c2cc(NC(=O)c3ccc(C)c(Nc4nccc(-c5cccnc5)n4)c3)cc(C(F)(F)F)c2)cn1 [nilotinib] + CC(=O)c1c(C)c2cnc(Nc3ccc(N4CCNCC4)cn3)nc2n(C2CCCC2)c1=O [palbociclib] (first compound 0.2 µM, partner dose 0.04 µM)	70.4%
Cc1cn(-c2cc(NC(=O)c3ccc(C)c(Nc4nccc(-c5cccnc5)n4)c3)cc(C(F)(F)F)c2)cn1 [nilotinib] + CCN(CC)CCNC(=O)c1c(C)[nH]c(/C=C2\C(=O)Nc3ccc(F)cc32)c1C [sunitinib] (first compound 0.2 µM, partner dose 0.4 µM)	129%
